Drawing on the RNAGym collection of RNA variant scans (doi:10.7554/elife.90254), this text covers self-cleavage for 56 variants.

The source gives no read counts; variants with many changes may rest on few reads.

Sequences and labels used below:
B1: LINE1-mini (parent)
chain: GGCAGAGCUCAACACAGCGUGGCAAAGUGGCUGUGGCUAGACUGCC

In this data set the parent is B1. The data set can be described thus: self-cleavage, relative activity (ratio to wild type); higher = more cleavage; in vitro, sequencing; the parent is a self-cleaving ribozyme.
Take GGCAGAGUUCAAGACAGCGUGGCAAAGUGGCUGUAGCUAGACUGCC [C8U C13G G35A]: the self-cleavage worked out at 0.31.

Turning to GGCAGAGUUCAACACAGCGUGGUAAAGUGGCUGUGGCUAGACUGAC [C8U C23U C45A], the self-cleavage is 0.58.

Turning to GGCAGAGUUCAACACAGAGUGGCAAAGUGGCUGUUGCUAGACUGCC [C8U C18A G35U], the self-cleavage was 0.13.

For GGCAGAGUUCAACACAGAGUGGCAAAGUGGCUGUGGCUAGACUGAC [C8U C18A C45A], the self-cleavage came to 0.29.

With GGCAGAGUUCAACAAAGGGUGGCAAAGUGGCUGUGGCUAGACUGCC [C8U C15A C18G], the self-cleavage turned out to be 0.01.

On to GGCAGAGUUCAACACAGCGUGGCAAAGUGGGUGUCGCUAGACUGCC [C8U C31G G35C], for which the self-cleavage came to 0.21.

On to GGCAGAGUUCAACAAAGCGUGGCAAAGUGGCUGUUGCUAGACUGCC [C8U C15A G35U], for which the self-cleavage was 0.14.

On to GGCAGAGUUCAAAACAGUGUGGCAAAGUGGCUGUGGCUAGACUGCU [C8U C13A C18U C46U], for which the self-cleavage was determined as 0.08.

Take GGCAGAGUUUAACAGAGCGUGGCUCAGUGGCUGUGGCUAGACUGCC [C8U C10U C15G A24U A25C]: the self-cleavage was determined as 0.03.

In the case of GGCAGAGUUCAACACAGGGUGGCAAAGUGACUGUAGCUAGACUGCC [C8U C18G G30A G35A], the self-cleavage was 0.16.

As to GGCAGAGUUCAAAAUAGCGUGGCAAAGUGGCUGUCGCUAGAGUGCC [C8U C13A C15U G35C C42G], the self-cleavage was 0.7.

On to GGCAGAGUUCAACACAACGUGGCAAAGUGACUGUGGCUAGACUGCC [C8U G17A G30A], for which the self-cleavage turned out to be 0.44.

With GGCAGAGUUCAACACAGCGUGGCAAAGUGGAUAUGGCUAGACUGCC [C8U C31A G33A], the self-cleavage was 0.12.

On to GGCAGAGUUUAACACAGCGUGGCAAAGUGGCUGUGUCUAGACUGCC [C8U C10U G36U], for which the self-cleavage turned out to be 0.03.

Regarding GGCAGAGUUCAACAUAGCGUGGCAAAGUUGCUGUUGCUAGCCUGCC [C8U C15U G29U G35U A41C], the self-cleavage came out at 0.09.

On to GGCAGAGUUCAAAACAGCGUGGCAAAGUGGCUGUGGCUAUACUGAC [C8U C13A G40U C45A], for which the self-cleavage was found to be 0.04.

Turning to GGCAGAGUUCAACACAGCGUGGGAAAGUGGCUGUGGCUAGAGUACC [C8U C23G C42G G44A], the self-cleavage was determined as 0.25.

In the case of GGCAGAGUUCAAAACAGCAUGGCAAAGUGGCUGUGGCUAUACUGCC [C8U C13A G19A G40U], the self-cleavage is 0.25.

As for GGCAGAGUUCAACACAGAGUGGCACAGUGGCUGUGGCUAGACUGCC [C8U C18A A25C], the self-cleavage was 0.07.

On to GGCAGAGUUCAACACAACAGGGCAAAGUGGCUGUGGCUAGGCUGCC [C8U G17A G19A U20G A41G], for which the self-cleavage is 0.02.

For the variant GGCAGAGUUCAACAUACCGAGGCAAAAUGGCUGUGCCUAGACUGCC [C8U C15U G17C U20A G27A G36C], the self-cleavage amounted to 0.04.

Turning to GGCAGAGUUCAACACAGGGUGGCAAAGUGGCUAUGGCUAGACUGCC [C8U C18G G33A], the self-cleavage is 0.16.

GGCAGAGUUCAACAUAGUGUGGCAAAGUGGCUGGGGCUAGAGUGCC [C8U C15U C18U U34G C42G]: the self-cleavage is 0.18.

As to GGCAGAGUUCAACACAGAGCAGCAACGUGGCUGUGGUUAGACUGCC [C8U C18A U20C G21A A26C C37U], the self-cleavage was 0.02.

Regarding GGCAGAGUUCAACACACCAGCGCAAAGUGGCUGUGGCUAGACUGCC [C8U G17C G19A U20G G21C], the self-cleavage worked out at 0.04.

Turning to GGCAGAGUUCAAUACAGCGUGGAAAAGUGGCUGUGGCUAGACUGCC [C8U C13U C23A], the self-cleavage turned out to be 0.05.

For GGCAGAGUUCAAUACAGCGUGGCAAAGUGGCUGUGGCUAUACUGCC [C8U C13U G40U], the self-cleavage turned out to be 0.12.

For GGCAGAGUUCAAGACAGCGUGGCCAAGAGGCUGUGGCUAGACUGCC [C8U C13G A24C U28A], the self-cleavage was 0.42.

On to GGCAGAGUUCAACACAGCGUGGUAAAGUGGCUGUGGCUAGCCUGCC [C8U C23U A41C], for which the self-cleavage amounted to 0.06.

Take GGCAGAGUUCAACACAGUGAGGCAAAGUGGCCGUGGCUAGACUGCC [C8U C18U U20A U32C]: the self-cleavage came out at 0.06.

Regarding GGCAGAGUUCAAUACAGCGUGGCAAAGUGGCUGUGCCUAGACUGCC [C8U C13U G36C], the self-cleavage stood at 0.07.

In the case of GGCAGAGUUCAACACAGAGUGGCAAUGUGGCUGUGGCUAGACUGCC [C8U C18A A26U], the self-cleavage turned out to be 0.02.

Turning to GGCAGAGUUCAACACAGAGUUGCGAAGUUGCUGUGGCUAGACUGCC [C8U C18A G21U A24G G29U], the self-cleavage came to 0.03.

On to GGCAGAGUUUGACUCAGCGUGGAAAAGUGGCUGCGGCUAGACUGCC [C8U C10U A11G A14U C23A U34C], for which the self-cleavage was 0.03.

With GGCAGAGUUCAACAUAGCCUGGCAAAGUGGCUGUGGCUAGAAUGCC [C8U C15U G19C C42A], the self-cleavage is 0.02.

With GGCAGAGUUUAGCACAGCGUGGCAAUGUGGCUGUGGCUAGACUGCC [C8U C10U A12G A26U], the self-cleavage worked out at 0.01.

GGCAGAGUUCAACACAGAGUGGCAAAGUGGCUGUGAGUAGACUGCC [C8U C18A G36A C37G]: the self-cleavage was 0.27.

Take GGCAGAGUUCAACACAGCGUGGUAAAGUGGCUGUGCAUAGACUGCC [C8U C23U G36C C37A]: the self-cleavage was found to be 0.27.

For the variant GGCAGAGUUCAACACAGGGUGGCAAAGUCGCUGUGGCUUGACUGCU [C8U C18G G29C A39U C46U], the self-cleavage was found to be 0.01.

GGCAGAGUUCAACACAGCGUGGUAAAGUGGCUGUGGCGAGACUGCC [C8U C23U U38G]: the self-cleavage came to 0.01.

As for GGCAGAGUUCAACACAUCGUGGCCAAGUGGCUGUGGCUAGACUGCA [C8U G17U A24C C46A], the self-cleavage turned out to be 0.13.

Consider GGCAGAGUUCAACACAGUGUGGCAAAGUGGCUGUGGUUAGACUGUC [C8U C18U C37U C45U], for which the self-cleavage was 0.22.

For GGCAGAGUUCAACAGAGCGUGGCAAAGUGGCUCUGGGUAGACUGCC [C8U C15G G33C C37G], the self-cleavage came out at 0.05.

Turning to GGCAGAGUUCAACACACCGUGGCGAAGUGGCAGUGGCUAGACUGCC [C8U G17C A24G U32A], the self-cleavage amounted to 0.02.

In the case of GGCAGAGUUUAACACAGCGUGGCAAAUUGGCUGUGGCUAGACUGCC [C8U C10U G27U], the self-cleavage was found to be 0.06.

On to GGCAGAGUUCAACACAGCGUGGCAAAGUGGUUGUGGCUAGACUGCG [C8U C31U C46G], for which the self-cleavage came out at 0.35.

Take GGCAGAGUUCAACACAGUGUGGCAAAGUGGCUGUGGCUUGACUGCC [C8U C18U A39U]: the self-cleavage was determined as 0.05.

GGCAGAGUUCAACACAGGGUGGCAAAGUGGCUGUGGCUAGACUUCC [C8U C18G G44U]: the self-cleavage came out at 0.08.

With GGCAGAGUUCAACAUAGCGUGGCAAAGUGGCGGUGGCUAGACUGCC [C8U C15U U32G], the self-cleavage was found to be 0.05.

For the variant GGCAGAGUUUAACCCAGCGUGGCAAAGUGGCUGUGGCUAGACUGCC [C8U C10U A14C], the self-cleavage came out at 0.05.

Regarding GGCAGAGUUCAACACAGCGUGGCAAAGUGGCUGUGGAUAGACUGUC [C8U C37A C45U], the self-cleavage came to 0.21.

As to GGCAGAGUUUAACACUGCGUGGCAAGGUGGCUGUGGCUAGACUGCC [C8U C10U A16U A26G], the self-cleavage was determined as 0.03.

On to GGCAGAGUUCAACACAGCGUGGUAAAGUGGCUGUGGCUACACUGCC [C8U C23U G40C], for which the self-cleavage is 0.09.

Consider GGCAGAGUUCAACAAAGCGUGGCAACAUGGCUGGGGCUAGACUGCC [C8U C15A A26C G27A U34G], for which the self-cleavage was 0.04.

GGCAGAGUUCAAGCCAGCGUGGCAAAAUGCCUGUGGCUAGACUGCC [C8U C13G A14C G27A G30C]: the self-cleavage worked out at 0.03.

In the case of GGCAGAGUUGAACACAGCGUGGCAAAGUGGCUGUGUCUAGACUGCU [C8U C10G G36U C46U], the self-cleavage was found to be 0.02.
